The values below come from ChEMBL document CHEMBL4888484, “Replenishing the malaria drug discovery pipeline: Screening and hit evaluation of the MMV Hit Generation Library 1 (HGL1) against asexual blood stage Plasmodium falciparum ,using a nano luciferase reporter read-out” (2022).

One may read the % Inhibition as the relative decrease from the control value, in per cent.

SMILES strings stand for the structures. Screen size: about 150,000 compounds; about 540 (0.36%) showed an effect of 50% or more. Some of the results follow.

The test system of this test is Plasmodium falciparum. Briefly: Primary screen in NF54 nanoGlo assay, in single point, at 2uM, 72h; a lower Z score goes with more inhibition. The format is functional, Erythrocyte. To be noted: timepoint 72 hour.
Take `CN(C(=O)N1CCN(C(=O)N(C)c2ccccc2)CC1)c1ccccc1`: the “% Inhibition” value was -11% and the Z score is 1.42.
Consider `Cc1ccc(C(=O)NC(c2ccc3c(c2)CCO3)[C@H]2C[C@@H](O)C2)c(F)c1` (some centres undefined), for which the “% Inhibition” value was -11% and the Z score was determined as 1.7.
In the same order, the values of `C[C@@]1(C(=O)NC2CCCCCCC2)CCC(=O)N1Cc1ccccc1` are -1% and 0.1.
In the same order, the values of `O=C(Cc1ccc(F)cc1)N1CCN(c2nc3ccccc3c3nnc(-c4ccco4)n23)CC1` are 1% and -0.08.
Regarding `Cc1nc2ccc(-n3ncnc3[C@H]3CCCS(=O)(=O)C3)cc2s1`, the “% Inhibition” value is -14% and the Z score stood at 1.94.
In the same order, the values of `O=C(c1cc(C2CC2)on1)N(Cc1ccco1)C1CC1` are -13% and 1.31.
In the same order, the values of `CC(C)n1ncc2[nH]c(-c3ccc(-c4ccccn4)cc3)nc21` are 3% and -0.39.
In the same order, the values of `CC(C)(NC(=O)[C@H](O)c1ccccc1)C1CC1` are -16% and 1.91.
As to `CS(=O)(=O)N1C[C@H]2CN(Cc3cc(Br)ccc3F)CC[C@@]2(CO)C1`, the “% Inhibition” value was found to be 0% and the Z score is listed as -0.04.
In the same order, the values of `C#CCN(Cc1nncn1C)CC1CC1` are -4% and 0.67.
With `CN1CC[C@](C)(CNC(=O)c2cn(CCc3ccccc3)cc(C(=O)O)c2=O)C1`, the “% Inhibition” value was found to be 1% and the Z score is -0.16.
In the same order, the values of `c1csc([C@H]2NCCn3cccc32)c1` are -22% and 2.83.
In the same order, the values of `COCCc1nnc2n1CCC1(CC2)CCN(C(=O)C(C)C)CC1` are -6% and 0.59.
In the same order, the values of `Cc1nc(-c2ccccc2)nc2[nH]c(-c3ccccc3)cc12` are -4% and 0.51.
On to `COc1ccnc(CN(C)Cc2c(C)noc2C)c1OC`, for which the “% Inhibition” value was -6% and the Z score was determined as 0.99.
In the same order, the values of `O=C([C@H]1CCc2nccn2C1)N1Cc2cccnc2C1` are -11% and 2.01.
For `CCOC(=O)c1cnn(-c2nc(-c3ccc(OC)cc3)cs2)c1CN(C)Cc1cc(C)no1`, the “% Inhibition” value is -12% and the Z score came out at 1.38.
As for `C=CCNC(=O)N(Cc1ccc(F)cc1)c1cccc(CC(=O)NCc2ccc(F)cc2)c1`, the “% Inhibition” value was -9% and the Z score is on record as 0.86.
For the molecule `CC1CCC(NC(=O)CON=C(N)c2ccc(OCc3ccccc3)cc2)CC1` (centres undefined), the “% Inhibition” value is recorded as -13% and the Z score was found to be 2.27.
In the same order, the values of `CNC(=O)c1noc(CNC(=O)c2cc(C)n(C)c2C)n1` are -2% and 0.33.
With `Cc1[nH]c2ccccc2c1C(=O)C(C#N)C(=O)C1CC1C` (centres undefined), the “% Inhibition” value turned out to be 0% and the Z score is -0.03.
In the same order, the values of `CN(CC(=O)Nc1ccc2c(c1)CCC2)Cc1ccco1` are -7% and 0.72.
In the same order, the values of `CC(C)NC(=O)c1csc(CN(CCC(c2ccccc2)c2ccccc2)Cc2ccc(F)cc2)n1` are -10% and 1.69.
In the same order, the values of `CCS(=O)(=O)C1CN(Cc2ccn(CC(F)(F)F)n2)C1` are -6% and 0.87.
`CCC(C)[C@H](NC(=O)OC(C)(C)C)C(=O)NC[C@H]1CC[C@H](C(=O)N[C@H](C(=O)O)C(C)C)CC1` (some centres undefined): the “% Inhibition” value was -4% and the Z score was 0.48.
For the molecule `Cc1ccc(N2CN(CC(=O)N3CCCCC3)S(=O)(=O)c3cccnc32)cc1`, the “% Inhibition” value is listed as -22% and the Z score is 2.41.
In the same order, the values of `COc1cc(C)cc2c(C)c(C(=O)N3C[C@@H](C)[C@](C)(CN)C3)oc12` are 23% and -2.86.
In the same order, the values of `CC(=O)N(Cc1cccnc1)[C@H]1CCCN(C(=O)c2sc(C)nc2C)C1` are -9% and 1.54.
As for `Cc1nnc(N(C)[C@H]2CCC(=O)N(C)C2)nc1C`, the “% Inhibition” value is -6% and the Z score stood at 1.28.
In the same order, the values of `Cc1cc(C(F)(F)F)cc(=O)n1C[C@H]1CCCCO1` are -9% and 1.27.
In the same order, the values of `CC(C)N(CC1CC1)C(=O)NC1CN(S(=O)(=O)N(C)C)C1` are -11% and 1.45.
In the same order, the values of `CC(C)Cc1ccc(CN2CCN([C@H]3CCNC3)CC2)s1` are -6% and 0.81.
As to `Cc1ccc(Nc2ccc3ncnc4c3c2C(=O)c2ccccc2-4)cc1`, the “% Inhibition” value was -5% and the Z score came out at 0.62.
For `COc1ccc(CC(=O)Nc2cnc(N3CCCCCC3)nc2)cc1`, the “% Inhibition” value is -20% and the Z score worked out at 1.75.
In the same order, the values of `COc1c(CNC(=O)c2cc[nH]c2C2CCC2)c(C)nn1C` are -47% and 5.56.
In the same order, the values of `O=C(c1sc2ccccc2c1Cl)N1CCc2ccccc21` are -8% and 1.51.
In the case of `CC(CNC1C2CCCOC2C1(C)C)N1CCOCC1C` (centres undefined), the “% Inhibition” value is given as -11% and the Z score is reported as 1.37.
For the molecule `Cc1cc(-c2cccc(C(=O)N3CC[C@@H](O)C3)c2)cnc1-n1cnnc1`, the “% Inhibition” value is recorded as -5% and the Z score amounted to 0.44.
Turning to `CCOCCC(=O)NCc1cnc(C)c(C)c1`, the “% Inhibition” value is reported as -11% and the Z score stood at 2.1.
In the same order, the values of `Cc1ocnc1C(=O)N1CCC2(CC1)CC(=O)N(C[C@H]1CCCO1)C2` are -16% and 1.62.
In the same order, the values of `CCCN(CCOc1c(Cl)cc(Cl)c(O)c1Cl)C(N)=O` are 0% and 0.05.
In the same order, the values of `COC(=O)c1cnc(N2CCC[C@H]2C2CCCCC2)nc1` are -8% and 1.32.
